# Reference: PubChem BioAssay AID485364 (National Center for Advancing Translational Sciences (NCATS), 2010)
# About 11,000 (3.1%) of roughly 360,000 compounds were called active. Inconclusive means that the source gave no clear call. Such entries were picked first, then a sample of the others. The call rests on the fitted dose curve; in most records, active means well fitted inhibition curve with a large enough effect; inconclusive means small, poorly fitted or top-dose-only effect; inactive means no such curve, though single readings can be large or run the other way. Potencies of inconclusive entries are left out as doubtful fits.
# Molecular target: Schistosoma mansoni thioredoxin glutathione reductase (TGR) (UniProt Q962Y6)
# Assay: qHTS Assay for the Inhibitors of Schistosoma Mansoni Peroxiredoxins; further: nearly all actives have a fitted effect of over 60% in size
# Details: purified TGR, DTNB reduction, TNB absorbance 405 nm; activity change, negative = inhibition: at 114 µM (top of the series) unless noted
# Outline: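 First, TGR (20 nM dispensed) and NADPH were mixed with compound. Second, a 15 min room-temperature incubation followed. Third, further NADPH and then DTNB were added to start the reaction. Finally, TNB absorbance was monitored kinetically.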
# On the % scale 0 is the no-effect control and ±100 the full control effect; potency means the concentration at half of the fitted maximal effect; tags describe the fitted curve by direction and shape.
Structure (SMILES),Potency,"activity change, negative = inhibition"
O=[N+]([O-])CC(=Nc1ccc(Cl)cc1)N/N=C\c1oc(O)c2ccccc12,active: 12.6 µM,–
CC(C)[C@H](N)c1cn([C@@H](CO)C(=O)N2CCNCC2)nn1,"inconclusive [inhibitor, partial curve]",–
Nc1c(C(=O)c2ccccc2)sc2nsc(SCCN3CCCC3)c12,active: 39.8 µM,–
Cc1ccc(/C=N/NC(=O)c2cc(-c3ccncc3)nc3ccccc23)o1,"inconclusive [inhibitor, full curve, poor fit]",–
O=C(NCCc1ccco1)c1nn(Cc2ccccc2)c(=O)c2ccccc12,"inconclusive [inhibitor, partial curve]",–
CCOc1ccc(N(CC(=O)Nc2ccc(Br)cc2)S(C)(=O)=O)cc1,–,inactive: 9.78%
O=C(N/C(=C/c1ccco1)C(=O)N1CCCC1)c1cccs1,"inconclusive [inhibitor, partial curve]",–
COc1cc(NS(=O)(=O)c2ccc(NC(=S)NC(=O)c3cccs3)cc2)nc(OC)n1,active: 22.4 µM,–
Cc1ccc(C(=O)N/C(=C/c2ccco2)C(=O)NCc2ccco2)cc1,active: 39.8 µM,–
C=C1c2ccc(C)cc2NC(=O)N1c1ccccc1,"inconclusive [inhibitor, partial curve]",–
CCn1c(=O)n(CC)c2cc(N3CCCC3)c(NC(=O)Nc3cc(C)cc(C)c3)cc21,–,inactive: -10.1%
O=[N+]([O-])c1ccc(C2Oc3ccccc3C3CC(c4ccccc4)=NN32)s1 (configuration not stated),active: 39.8 µM,–
COc1ccc(S(=O)(=O)N=Nc2c(O)[nH]c3ccccc23)cc1,"inconclusive [inhibitor, partial curve]",–
CCn1c(Sc2ccc(N)cc2Cl)nc2ccccc21,"inconclusive [inhibitor, single point]",–
COc1cc(OC)c2c(-c3ccccc3)cc(=O)oc2c1C(CC(=O)N1CCCC1)c1ccc2c(c1)OCO2 (configuration not stated),–,inactive: 2.8%
Cc1ccc(CNC(=O)C2CCN(C(=O)Nc3ccc(C)cc3)CC2)cc1,–,inactive: 8.07%
Cc1cc(Br)ccc1NS(=O)(=O)c1c(C)[nH]c(=O)[nH]c1=O,–,inactive: 10.5%
Cc1cc(-n2ccc(=O)[nH]c2=O)nc(-c2ccccc2)n1,"inconclusive [inhibitor, partial curve]",–
Cc1n[nH]c(=O)nc1N1CCc2ccccc2C1,"inconclusive [inhibitor, partial curve]",–
CCC1(CC)Cc2ccccc2-c2nc(CN3CCOCC3)[nH]c(=O)c21,"inconclusive [inhibitor, single point]",–
C=Cc1ccc(CSc2cc(C)nc3nc(C)nn23)cc1,"inconclusive [inhibitor, full curve]",–
Cc1[nH]c2ccccc2c1SCC(=O)N1CCCc2ccccc21,–,inactive: 3.76%
CCc1ccc(CN2CCCC(CCC(=O)N3CCN(c4ccccn4)CC3)C2)o1 (configuration not stated),"inconclusive [inhibitor, partial curve]",–
O=c1nc(Nc2cccc(Cl)c2)oc2cc(Cl)oc(=O)c12,"inconclusive [inhibitor, partial curve]",–

Structure (SMILES),Potency,"activity change, negative = inhibition"
N/C(=N\OC(=O)c1ccc([N+](=O)[O-])cc1Cl)c1ccccn1,"inconclusive [inhibitor, full curve]",–
Nc1c(C(=O)NCCN2CCOCC2)c2nc3ccccc3nc2n1-c1ccccc1,–,inactive: -28.7%
CN1C[C@@H]2C(c3ccc(Cl)nc3)C3(c4cccnc4)CC2(C3)[C@H]1c1ccccc1 (some centres not stated),"inconclusive [inhibitor, partial curve]",–
Cc1ccc(NC(=S)NC(=O)C2CCC2)cc1C,"inconclusive [inhibitor, full curve, poor fit]",–
CS(=O)(=O)N1CCc2cc(-c3csc(NC(=O)Cc4ccccc4)n3)ccc21,–,inactive: 6.4%
Cc1ccc(NC(=O)C2CC(=O)N(c3ccc(OC(C)C)cc3)C2)cc1 (configuration not stated),–,inactive: -0.985%
COc1ccc(NC(=O)CSc2nnc(-c3cccs3)n2Cc2ccco2)cc1OC,"inconclusive [inhibitor, full curve]",–
CCC(C)(C)n1nnnc1CN(Cc1cc2cc(OC)c(OC)cc2[nH]c1=O)C1CCCC1,active: 25.1 µM,–
Cc1cccc(NC(=O)Cn2cnc3c(oc4nc5c(cc43)COC(C)(C)C5)c2=O)c1,–,inactive: -3.63%
CC(=O)Nc1c2c(nn1-c1ccccc1)CS(=O)C2 (configuration not stated),–,inactive: -21.8%
Cc1ccc(/C=C2\C(=O)NC(=S)N(c3ccc(F)cc3)C2=O)s1,"inconclusive [inhibitor, full curve]",–
Cc1cc(/C=C2\C(=O)NC(=O)N(c3ccccc3)C2=O)c(C)n1-c1ccc(C(=O)O)c(Cl)c1,active: 28.2 µM,–
Cc1cc(C(=O)N/N=C/C=C/c2ccc(Br)cc2)n[nH]1,"inconclusive [inhibitor, full curve, poor fit]",–
CCc1nc2ccccc2c(C(=O)OCC(=O)NCc2ccco2)c1C,active: 35.5 µM,–
O=C(O)c1cccc(N2C(=O)/C(=C/c3ccc([N+](=O)[O-])cc3)C=C2c2ccccc2)c1,active: 25.1 µM,–
COCCn1c(C)c(C)c(S(=O)(=O)c2ccccc2)c1N,active: 1 µM,–
Cc1ccc2oc(=O)c3cnn(CC(=O)NCCN4CCOCC4)c3c2c1,"inconclusive [inhibitor, partial curve]",–
CCOC(=O)N1CCN(C(=O)C(CC(C)C)NS(=O)(=O)c2ccc(C)cc2)CC1 (configuration not stated),–,inactive: -5.25%
O=[N+]([O-])c1cc2c(cc1CN1CCN(CCOCCO)CC1)OCO2,"inconclusive [inhibitor, partial curve]",–
N#CCC(=O)Nc1ncc(Cc2ccccc2Cl)s1,"inconclusive [inhibitor, single point]",–
Cc1ccc(S(=O)(=O)CC#CCOC(=O)c2ccc([N+](=O)[O-])cc2)cc1,active: 0.631 µM,–
Cc1ccc(S(=O)(=O)N2CCN(C(=O)Cn3cnc4c3c(=O)n(C)c(=O)n4C)CC2)cc1C,–,inactive: -20.7%
O=C(NCc1nc(-c2ccccc2)no1)c1ccc2c(c1)OCO2,–,inactive: 1.19%
